Reference: the supplement of paper PMC12217912
Some of the results follow. Sequences were assembled here from the parent chain. Inactive controls read about 0.05.

B1: TEV protease; numbered along this chain (parent)
chain: MGESLFKGPRDYNPISSSICHLTNESDGHTTSLYGIGFGPFIITNKHLFRRNNGTLVVQSLHGVFKVKDTTTLQQHLVDGRDMIIIRMPKDFPPFPQKLKFREPQREERICLVTTNFQTKSMSSMVSDTSCTFPSGDGIFWKHWIQTKDGQCGSPLVSTRDGFIVGIHSASNFTNTNNYFTSVPKNFMELLTNQEAQQWVSGWRLNADSVLWGGHKVFMVKPEEPFQPVKEATQL

Variants of: B1
Experiment: raw area under fraction-flipped curve 0-4 h after induction (AUC4h, not background-subtracted), DNA-recorder readout of cleavage of the substrate (dimensionless); higher = more cleavage of the substrate by the protease variant
Settings: temperature: 34 °C; time window: 0-4 h after rhamnose induction
Experimental: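 In vivo DNA recorder in E. coli TOP10(DE3) ΔrhaA at 34 °C. Each TEVp single-site mutant (parent TEVp 0) is paired with a single-site variant of the 7-mer TEVs (canonical ENLYFQ|S). The substrate sits between flexible linkers in a Bxb1-sfGFP-TEVs-SsrA fusion, so cleavage stabilises Bxb1 and speeds flipping of a recombination array, read by NGS. The value is the raw area under the fraction-flipped curve over 0-4 h after rhamnose induction (AUC4h), with ≥20 reads per time point. It is not background-subtracted; inactive controls average about 0.047.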
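Further: Bxb1 expression induced with 0.2% (w/v) L-rhamnose at OD600 near 0.5, cultures sampled hourly, flipped fraction per protease–substrate barcode pair counted by paired-end Illumina sequencing.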

## S135N
  area with substrate CNLYFQS: 0.0617
  area with substrate DNLYFQS: 0.0544
  area with substrate GNLYFQS: 0.0596
  area with substrate HNLYFQS: 0.0612
  area with substrate KNLYFQS: 0.0553
  area with substrate LNLYFQS: 0.0241
  area with substrate MNLYFQS: 0.0562
  area with substrate NNLYFQS: 0.068
  area with substrate PNLYFQS: 0.0541
  area with substrate QNLYFQS: 0.0767
  area with substrate RNLYFQS: 0.0472
  area with substrate SNLYFQS: 0.0658
  area with substrate TNLYFQS: 0.0493
  area with substrate WNLYFQS: 0.066
  area with substrate YNLYFQS: 0.0607

## K66M
  area with substrate CNLYFQS: 0.0644
  area with substrate DNLYFQS: 0.0893
  area with substrate FNLYFQS: 0.0366
  area with substrate HNLYFQS: 0.0717
  area with substrate INLYFQS: 0.0662
  area with substrate KNLYFQS: 0.0571
  area with substrate LNLYFQS: 0.0601
  area with substrate MNLYFQS: 0.0603
  area with substrate PNLYFQS: 0.0758
  area with substrate SNLYFQS: 0.0749
  area with substrate TNLYFQS: 0.062
  area with substrate WNLYFQS: 0.0654
  area with substrate YNLYFQS: 0.0549

## N13M
  area with substrate CNLYFQS: 0.0624
  area with substrate DNLYFQS: 0.0575
  area with substrate HNLYFQS: 0.0601
  area with substrate KNLYFQS: 0.0604
  area with substrate LNLYFQS: 0.072
  area with substrate MNLYFQS: 0.0636
  area with substrate PNLYFQS: 0.0437
  area with substrate TNLYFQS: 0.0781
  area with substrate WNLYFQS: 0.0622

## N13H
  area with substrate CNLYFQS: 0.0696
  area with substrate DNLYFQS: 0.0829
  area with substrate FNLYFQS: 0.0707
  area with substrate GNLYFQS: 0.0688
  area with substrate HNLYFQS: 0.064
  area with substrate INLYFQS: 0.0639
  area with substrate KNLYFQS: 0.0596
  area with substrate LNLYFQS: 0.0655
  area with substrate MNLYFQS: 0.061
  area with substrate NNLYFQS: 0.0717
  area with substrate PNLYFQS: 0.0709
  area with substrate SNLYFQS: 0.0486
  area with substrate TNLYFQS: 0.0619
  area with substrate VNLYFQS: 0.0928
  area with substrate WNLYFQS: 0.0818
  area with substrate YNLYFQS: 0.056

## S26Q
  area with substrate CNLYFQS: 0.0409
  area with substrate DNLYFQS: 0.0668
  area with substrate FNLYFQS: 0.0612
  area with substrate GNLYFQS: 0.0646
  area with substrate HNLYFQS: 0.0527
  area with substrate KNLYFQS: 0.0438
  area with substrate MNLYFQS: 0.0575
  area with substrate NNLYFQS: 0.0706
  area with substrate PNLYFQS: 0.0623
  area with substrate SNLYFQS: 0.0693
  area with substrate WNLYFQS: 0.0609

## H76M
  area with substrate CNLYFQS: 0.0734
  area with substrate DNLYFQS: 0.082
  area with substrate HNLYFQS: 0.0613
  area with substrate INLYFQS: 0.0442
  area with substrate MNLYFQS: 0.077
  area with substrate PNLYFQS: 0.0554
  area with substrate VNLYFQS: 0.0598

## N116Y
  area with substrate CNLYFQS: 0.065
  area with substrate DNLYFQS: 0.0731
  area with substrate FNLYFQS: 0.0593
  area with substrate GNLYFQS: 0.0608
  area with substrate HNLYFQS: 0.0512
  area with substrate KNLYFQS: 0.0802
  area with substrate MNLYFQS: 0.0687
  area with substrate PNLYFQS: 0.0498
  area with substrate SNLYFQS: 0.0677
  area with substrate TNLYFQS: 0.0621
  area with substrate VNLYFQS: 0.0683
  area with substrate YNLYFQS: 0.043

## T23A
  area with substrate CNLYFQS: 0.0274
  area with substrate DNLYFQS: 0.0675
  area with substrate GNLYFQS: 0.0793
  area with substrate HNLYFQS: 0.0656
  area with substrate INLYFQS: 0.0542
  area with substrate KNLYFQS: 0.0677
  area with substrate LNLYFQS: 0.0802
  area with substrate MNLYFQS: 0.0604
  area with substrate RNLYFQS: 0.0708
  area with substrate SNLYFQS: 0.0676
  area with substrate TNLYFQS: 0.0626
  area with substrate VNLYFQS: 0.0463
  area with substrate WNLYFQS: 0.0576
  area with substrate YNLYFQS: 0.058

## F226G
  area with substrate CNLYFQS: 0.0643
  area with substrate DNLYFQS: 0.118
  area with substrate HNLYFQS: 0.0424
  area with substrate INLYFQS: 0.0844
  area with substrate KNLYFQS: 0.0583
  area with substrate LNLYFQS: 0.0334
  area with substrate NNLYFQS: 0.0718
  area with substrate PNLYFQS: 0.0624
  area with substrate SNLYFQS: 0.0634
  area with substrate TNLYFQS: 0.0502
  area with substrate VNLYFQS: 0.0791
  area with substrate WNLYFQS: 0.0667
  area with substrate YNLYFQS: 0.066

## F226E
  area with substrate CNLYFQS: 0.0669
  area with substrate DNLYFQS: 0.0977
  area with substrate FNLYFQS: 0.0704
  area with substrate GNLYFQS: 0.0718
  area with substrate HNLYFQS: 0.0619
  area with substrate KNLYFQS: 0.0692
  area with substrate LNLYFQS: 0.0266
  area with substrate NNLYFQS: 0.0684
  area with substrate PNLYFQS: 0.0597
  area with substrate RNLYFQS: 0.0665
  area with substrate TNLYFQS: 0.0664
  area with substrate WNLYFQS: 0.0608
  area with substrate YNLYFQS: 0.0385

## N178A
  area with substrate CNLYFQS: 0.0668
  area with substrate DNLYFQS: 0.0713
  area with substrate KNLYFQS: 0.0589
  area with substrate LNLYFQS: 0.0833
  area with substrate PNLYFQS: 0.0622
  area with substrate TNLYFQS: 0.107

## L235E
  area with substrate CNLYFQS: 0.0801
  area with substrate DNLYFQS: 0.0669
  area with substrate HNLYFQS: 0.0943
  area with substrate SNLYFQS: 0.117
  area with substrate WNLYFQS: 0.0632

## D82H
  area with substrate CNLYFQS: 0.0419
  area with substrate DNLYFQS: 0.0633
  area with substrate GNLYFQS: 0.0564
  area with substrate INLYFQS: 0.0531
  area with substrate PNLYFQS: 0.0651
  area with substrate QNLYFQS: 0.0575
  area with substrate VNLYFQS: 0.0597
  area with substrate WNLYFQS: 0.0529
  area with substrate YNLYFQS: 0.0462

## P89L
  area with substrate CNLYFQS: 0.0674
  area with substrate DNLYFQS: 0.0667
  area with substrate GNLYFQS: 0.0445
  area with substrate INLYFQS: 0.0703
  area with substrate LNLYFQS: 0.0582
  area with substrate NNLYFQS: 0.0524
  area with substrate PNLYFQS: 0.0566
  area with substrate RNLYFQS: 0.0683
  area with substrate VNLYFQS: 0.0567
  area with substrate YNLYFQS: 0.0604

## G166F
  area with substrate CNLYFQS: 0.0547
  area with substrate DNLYFQS: 0.055
  area with substrate FNLYFQS: 0.0688
  area with substrate INLYFQS: 0.0519
  area with substrate LNLYFQS: 0.0488
  area with substrate MNLYFQS: 0.0458
  area with substrate NNLYFQS: 0.0313
  area with substrate PNLYFQS: 0.0338
  area with substrate SNLYFQS: 0.0578
  area with substrate TNLYFQS: 0.0516
  area with substrate WNLYFQS: 0.0512
  area with substrate YNLYFQS: 0.0569

## F117E
  area with substrate CNLYFQS: 0.0673
  area with substrate DNLYFQS: 0.0722
  area with substrate FNLYFQS: 0.0595
  area with substrate GNLYFQS: 0.0561
  area with substrate HNLYFQS: 0.0676
  area with substrate KNLYFQS: 0.0586
  area with substrate LNLYFQS: 0.0645
  area with substrate PNLYFQS: 0.0767
  area with substrate SNLYFQS: 0.0671
  area with substrate TNLYFQS: 0.0692
  area with substrate WNLYFQS: 0.0662
  area with substrate YNLYFQS: 0.0582
